Some of the results follow. Many values rest on one well or one pass, so single values are uncertain.
The compounds below were run on IPC-298 (assay: cell count relative to DMSO control; melanoma cells; higher = more viable cells). Details: library dose: low library concentration; 72 h.
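Further: cell number obtained by counting DAPI-stained nuclei in high-throughput microscope images with image analysis software, screen run in 1,536-well plates.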

| Compound | cell count |
| --- | --- |
| CCCCCCCCc1ccc(CCC(N)(CO)CO)cc1 [fingolimod] + CC1(C)NC(=O)N(c2ccc([N+](=O)[O-])c(C(F)(F)F)c2)C1=O [nilutamide] (first compound 2 µM, partner dose 1 µM) | 107% |
| Cc1ccc(NC(=O)c2cccc(N(C)C)c2)cc1NC(=O)c1ccc(O)cc1 + CO[C@@H]1[C@H](N(C)C(=O)c2ccccc2)C[C@H]2O[C@]1(C)n1c3ccccc3c3c4c(c5c6ccccc6n2c5c31)C(=O)NC4 [Midostaurin] (first compound 2 µM, partner dose 0.08 µM) | 74.4% |
| CCCCCCCCc1ccc(CCC(N)(CO)CO)cc1 [fingolimod] + Cc1cc(N2CCOCC2)cc2[nH]c(-c3c(NC[C@@H](O)c4cccc(Cl)c4)cc[nH]c3=O)nc12 [BMS536924] (first compound 2 µM, partner dose 0.2 µM) | 96.3% |
| CCCCCCCCc1ccc(CCC(N)(CO)CO)cc1 [fingolimod] + O=C(O)c1ccc(-c2c[nH]c3ncc(-c4ccccc4)cc23)cc1C1CCCC1 [GSK650394] (first compound 2 µM, partner dose 0.16 µM) | 98.6% |
| Cc1ccc(NC(=O)c2cccc(N(C)C)c2)cc1NC(=O)c1ccc(O)cc1 + OCCn1cc(-c2cnc3nnn(Cc4ccc5ncccc5c4)c3n2)cn1 [PF04217903] (first compound 2 µM, partner dose 1 µM) | 85.1% |
| NC(=O)c1ccc(N(C(N)=O)c2c(F)cccc2F)nc1-c1ccc(F)cc1F + C=CCn1c(=O)c2cnc(Nc3ccc(N4CCN(C)CC4)cc3)nc2n1-c1cccc(C(C)(C)O)n1 [MK1775] (first compound 0.4 µM, partner dose 0.02 µM) | 94.1% |
| CC(C)(C)c1cnc(CSc2cnc(NC(=O)C3CCNCC3)s2)o1 + CN(NC(=O)CC(=O)NN(C)C(=S)c1ccccc1)C(=S)c1ccccc1 [STA4783] (first compound 0.01 µM, partner dose 0.006 µM) | 97.1% |
| Cc1ccc(NC(=O)c2cccc(N(C)C)c2)cc1NC(=O)c1ccc(O)cc1 + Cn1cncc1[C@@](N)(c1ccc(Cl)cc1)c1ccc2c(c1)c(-c1cccc(Cl)c1)cc(=O)n2C [tipifarnib] (first compound 2 µM, partner dose 0.01 µM) | 87.3% |
| Cc1ccc(NC(=O)c2cccc(N(C)C)c2)cc1NC(=O)c1ccc(O)cc1 + NCC(=O)Nc1ccc(-n2nc(C(F)(F)F)cc2-c2ccc3c(ccc4ccccc43)c2)cc1 [OSU03012] (first compound 2 µM, partner dose 1 µM) | 65.8% |
| CCCCCCCCc1ccc(CCC(N)(CO)CO)cc1 [fingolimod] + CN(NC(=O)CC(=O)NN(C)C(=S)c1ccccc1)C(=S)c1ccccc1 [STA4783] (first compound 2 µM, partner dose 0.006 µM) | 90.2% |
| NC(=O)c1ccc(N(C(N)=O)c2c(F)cccc2F)nc1-c1ccc(F)cc1F + COc1cc2c(Oc3ccc4[nH]c(C)cc4c3F)ncnc2cc1OCCCN1CCCC1 [cediranib] (first compound 0.4 µM, partner dose 0.4 µM) | 103% |
| NC(=O)c1ccc(N(C(N)=O)c2c(F)cccc2F)nc1-c1ccc(F)cc1F + O=C(Nc1cccc(Cl)c1)Nc1ncc(CCNc2ncnc3ccsc23)s1 [SNS314] (first compound 0.4 µM, partner dose 0.0008 µM) | 97.2% |
| CC(C)(C)c1cnc(CSc2cnc(NC(=O)C3CCNCC3)s2)o1 + NC(=O)Nc1cc(-c2cccc(F)c2)sc1C(=O)N[C@H]1CCCNC1 [AZD7762] (first compound 0.01 µM, partner dose 0.02 µM) | 99.8% |
| CN(NC(=O)CC(=O)NN(C)C(=S)c1ccccc1)C(=S)c1ccccc1 + COc1cc2c(Oc3ccc4[nH]c(C)cc4c3F)ncnc2cc1OCCCN1CCCC1 [cediranib] (first compound 0.006 µM, partner dose 0.4 µM) | 98.5% |
| CCCCCCCCc1ccc(CCC(N)(CO)CO)cc1 [fingolimod] + C[C@@H]1CCN(C(=O)CC#N)C[C@@H]1N(C)c1ncnc2[nH]ccc12 [CP690550] (first compound 2 µM, partner dose 1 µM) | 107% |
| CCCCCCCCc1ccc(CCC(N)(CO)CO)cc1 [fingolimod] + COc1cc2c(Oc3ccc4[nH]c(C)cc4c3F)ncnc2cc1OCCCN1CCCC1 [cediranib] (first compound 2 µM, partner dose 0.4 µM) | 107% |
| CC(C)(C)c1cnc(CSc2cnc(NC(=O)C3CCNCC3)s2)o1 + NCC(=O)Nc1ccc(-n2nc(C(F)(F)F)cc2-c2ccc3c(ccc4ccccc43)c2)cc1 [OSU03012] (first compound 0.01 µM, partner dose 1 µM) | 93.3% |
| CCCCCCCCc1ccc(CCC(N)(CO)CO)cc1 [fingolimod] + NCC(=O)Nc1ccc(-n2nc(C(F)(F)F)cc2-c2ccc3c(ccc4ccccc43)c2)cc1 [OSU03012] (first compound 2 µM, partner dose 1 µM) | 72.7% |
| CCCCCCCCc1ccc(CCC(N)(CO)CO)cc1 [fingolimod] + NC(=O)Nc1cc(-c2cccc(F)c2)sc1C(=O)N[C@H]1CCCNC1 [AZD7762] (first compound 2 µM, partner dose 0.02 µM) | 107% |
| CCCCCCCCc1ccc(CCC(N)(CO)CO)cc1 [fingolimod] + CO[C@@H]1[C@H](N(C)C(=O)c2ccccc2)C[C@H]2O[C@]1(C)n1c3ccccc3c3c4c(c5c6ccccc6n2c5c31)C(=O)NC4 [Midostaurin] (first compound 2 µM, partner dose 0.08 µM) | 96.3% |
| Cc1ccc(NC(=O)c2cccc(N(C)C)c2)cc1NC(=O)c1ccc(O)cc1 + CN(C)S(=O)(=O)c1ccc2c(c1)/C(=C/c1cc3c([nH]1)CCCC3)C(=O)N2 [SU6656] (first compound 2 µM, partner dose 0.4 µM) | 82.5% |
| NC(=O)c1ccc(N(C(N)=O)c2c(F)cccc2F)nc1-c1ccc(F)cc1F + OCCn1cc(-c2cnc3nnn(Cc4ccc5ncccc5c4)c3n2)cn1 [PF04217903] (first compound 0.4 µM, partner dose 1 µM) | 105% |
| CC(C)(C)c1cnc(CSc2cnc(NC(=O)C3CCNCC3)s2)o1 + Cc1cc(N2CCOCC2)cc2[nH]c(-c3c(NC[C@@H](O)c4cccc(Cl)c4)cc[nH]c3=O)nc12 [BMS536924] (first compound 0.01 µM, partner dose 0.2 µM) | 101% |
| NC(=O)c1ccc(N(C(N)=O)c2c(F)cccc2F)nc1-c1ccc(F)cc1F + NCC(=O)Nc1ccc(-n2nc(C(F)(F)F)cc2-c2ccc3c(ccc4ccccc43)c2)cc1 [OSU03012] (first compound 0.4 µM, partner dose 1 µM) | 95.1% |

Source: the supplement of paper PMC4604168 (melanoma cell lines)
